Here are results for 23 compounds from PMC4336329 (PLoS ONE, 2015).

Screen size: about 310,000 compounds; about 2,200 (0.71%) showed an effect of 50% or more. The effect is printed as a negative number. Some of the results follow.

The target of this test is human ether-à-go-go-related gene (hERG) potassium channel (human, UniProt Q12809). Nature of the test: primary screen, population patch clamp on CHO cells stably expressing hERG.
human ether-à-go-go-related gene (hERG) potassium channel, sequence (Q12809 whole entry, looked up): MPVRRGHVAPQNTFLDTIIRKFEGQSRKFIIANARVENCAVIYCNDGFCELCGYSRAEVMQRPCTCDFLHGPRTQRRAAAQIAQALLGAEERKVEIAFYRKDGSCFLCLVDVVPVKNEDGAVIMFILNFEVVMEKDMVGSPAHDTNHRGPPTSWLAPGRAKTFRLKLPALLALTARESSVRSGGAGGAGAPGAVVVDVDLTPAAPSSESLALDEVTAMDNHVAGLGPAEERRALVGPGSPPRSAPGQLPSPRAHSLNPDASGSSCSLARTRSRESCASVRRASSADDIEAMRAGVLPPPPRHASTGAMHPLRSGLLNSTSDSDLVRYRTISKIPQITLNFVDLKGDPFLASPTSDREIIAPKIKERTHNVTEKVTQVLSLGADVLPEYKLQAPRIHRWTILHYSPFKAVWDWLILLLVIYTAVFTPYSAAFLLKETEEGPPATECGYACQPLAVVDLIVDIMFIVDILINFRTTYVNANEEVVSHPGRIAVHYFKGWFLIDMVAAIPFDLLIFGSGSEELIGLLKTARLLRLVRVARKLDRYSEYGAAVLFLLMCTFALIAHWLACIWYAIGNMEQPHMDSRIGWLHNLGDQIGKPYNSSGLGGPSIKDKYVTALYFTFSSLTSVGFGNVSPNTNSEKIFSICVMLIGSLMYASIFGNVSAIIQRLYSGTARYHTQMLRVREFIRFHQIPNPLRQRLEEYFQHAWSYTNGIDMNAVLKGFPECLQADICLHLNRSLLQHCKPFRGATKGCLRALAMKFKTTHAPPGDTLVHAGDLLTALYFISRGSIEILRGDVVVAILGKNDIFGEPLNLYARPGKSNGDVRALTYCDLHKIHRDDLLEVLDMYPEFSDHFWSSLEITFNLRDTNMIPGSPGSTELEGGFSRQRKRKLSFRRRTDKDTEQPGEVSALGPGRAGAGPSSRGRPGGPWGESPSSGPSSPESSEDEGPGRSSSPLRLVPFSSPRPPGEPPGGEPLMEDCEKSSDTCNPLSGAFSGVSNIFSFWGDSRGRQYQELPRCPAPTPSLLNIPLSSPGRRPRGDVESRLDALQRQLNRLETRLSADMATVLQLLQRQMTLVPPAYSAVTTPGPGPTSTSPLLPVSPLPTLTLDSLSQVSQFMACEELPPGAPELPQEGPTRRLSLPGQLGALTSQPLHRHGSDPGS
Take `Cc1cccc(/C=N/NC(=O)NC23CC4CC(CC(C4)C2)C3)n1`: the “hERG current change (%, negative = inhibition) at 1uM” value was 12.5%.

On to `COc1ccc(CNC(=O)c2sccc2-c2ccccc2)cc1OC`, for which the “hERG current change (%, negative = inhibition) at 1uM” value amounted to 11%.

On to `CC(C)N(Cc1c(O)ccc2c(=O)c(-c3ccc(Cl)cc3)coc12)C(C)C`, for which the “hERG current change (%, negative = inhibition) at 1uM” value amounted to 8.88%.

Consider `CC(=O)Nc1ccc(NC(=O)c2cc(C)nn2-c2ccccc2)cc1`, for which the “hERG current change (%, negative = inhibition) at 1uM” value is reported as 6.68%.

Consider `CCOC(=O)c1c(C)nc2c(c1C)c(=O)oc1ccccc12`, for which the “hERG current change (%, negative = inhibition) at 1uM” value was found to be 5.46%.

Consider `CN1c2ccccc2C2(C)CCCC3=Cc4cc([N+](=O)[O-])cc([N+](=O)[O-])c4OC312` (centres unmarked), for which the “hERG current change (%, negative = inhibition) at 1uM” value came to 10.2%.

On to `CN(C)S(=O)(=O)c1cccc(C(=O)C2=C3SC=C(c4ccccc4)N3CC2)c1`, for which the “hERG current change (%, negative = inhibition) at 1uM” value amounted to 5.05%.

For `O=C1N=c2ccccc2=C1c1[nH]c(=S)[nH]c1O`, the “hERG current change (%, negative = inhibition) at 1uM” value came to 20.5%.

As for `COc1cccc(C2/C(=C(/O)c3ccc4c(c3)OCO4)C(=O)C(=O)N2CCN2CCOCC2)c1` (centres unmarked), the “hERG current change (%, negative = inhibition) at 1uM” value came out at 12.1%.

As to `COc1ccc(C(=O)Nc2ccccc2NC(=O)c2ccco2)c(OC)c1`, the “hERG current change (%, negative = inhibition) at 1uM” value is -5.17%.

In the case of `Cc1ccnc(NC(=O)c2ccc(COc3c(F)c(F)cc(F)c3F)o2)c1`, the “hERG current change (%, negative = inhibition) at 1uM” value was determined as 16.1%.

On to `COCCN(C(=O)/C=C/c1ccccc1)c1nnc(-c2cccnc2)s1`, for which the “hERG current change (%, negative = inhibition) at 1uM” value is 8.57%.

Turning to `CCN(Cc1cnn(C)c1)Cc1nc(Cc2ccccc2Cl)no1`, the “hERG current change (%, negative = inhibition) at 1uM” value came to 3.47%.

Turning to `COc1ccc(S(=O)(=O)NCC(=O)N(Cc2ccco2)C(C(=O)NC(C)(C)C)C(C)C)cc1` (centres unmarked), the “hERG current change (%, negative = inhibition) at 1uM” value is recorded as -4.52%.

For the compound `O=C(CSc1nnnn1-c1cccnc1)Nc1cccc(Cl)c1`, the “hERG current change (%, negative = inhibition) at 1uM” value was found to be 9.13%.

Regarding `CCOCCCNc1nc(C(F)(F)F)nc2c1nnn2Cc1ccccc1Cl`, the “hERG current change (%, negative = inhibition) at 1uM” value is given as 15.9%.

On to `COc1ccc(C(C(=O)NC2CCCC2)N(CCN2CCOCC2)C(=O)c2ccc(OC)c(OC)c2)cc1` (centres unmarked), for which the “hERG current change (%, negative = inhibition) at 1uM” value was determined as 6.36%.

Consider `O=C(c1csc2c1CCCC2)N1CCCCC1`, for which the “hERG current change (%, negative = inhibition) at 1uM” value was 14.6%.

Turning to `CCOc1ccc(CN(C)C(=O)CN2C(=O)NC(c3ccccc3)(c3ccccc3)C2=O)cc1`, the “hERG current change (%, negative = inhibition) at 1uM” value was found to be 11.9%.

Consider `CCn1c(SCC(=O)Nc2ccccc2F)nnc1-c1ccoc1C`, for which the “hERG current change (%, negative = inhibition) at 1uM” value is on record as 2.43%.

For `CC(C)(C)c1ccc(S(=O)(=O)NCc2ccc(C(=O)NCC3CCCO3)cc2)cc1` (centres unmarked), the “hERG current change (%, negative = inhibition) at 1uM” value worked out at 16.7%.

In the case of `CC(Oc1ccc(F)cc1)C(=O)Nc1ccc2ccccc2c1` (centres unmarked), the “hERG current change (%, negative = inhibition) at 1uM” value is recorded as 11.5%.

In the case of `Cc1ccc(NC(=O)CC(NC(=O)c2ccccc2Cl)c2ccccc2)nc1` (centres unmarked), the “hERG current change (%, negative = inhibition) at 1uM” value is reported as 6.25%.
